Assay results as given in PubChem BioAssay AID2675 (National Center for Advancing Translational Sciences (NCATS), 2010).
Hit rate of the full screen: of about 280,000 compounds, about 100 (0.036%) were called active. Inconclusive means that the source gave no clear call. Such entries were picked first, then a sample of the others. Calls come from the whole dose curve; as a rule, active = well fitted inhibition curve with a large enough effect in the signal ratio, with a control signal flat (not every such curve was filed as active); inconclusive = small, poorly fitted or top-dose-only effect, or effect the other way, or a change in a side signal; inactive = no such curve, though single readings can be large or run the other way; the % refers to the signal ratio. Where the call is inconclusive, the potency comes from a doubtful curve fit. “Side channel” marks fits to a control or component signal instead of the main read-out.

biological target: Muscleblind-like protein 1 (Homo sapiens) (UniProt Q9NR56); test: qHTS Assay for Inhibitors of MBNL1-poly(CUG) RNA binding; conditions: TR-FRET MBNL1-His/biotin-(CUG)12 binding, 665/545 ratio; activity change, negative = inhibition: at 57.5 µM (top of the series)
In short: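 Inhibition of protein-RNA binding appears as loss of TR-FRET between terbium anti-His antibody on MBNL1-His and streptavidin-XL665 on biotin-(CUG)12. Activity is normalized to buffer-only and uninhibited-complex controls.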
% is set by controls: 0 for no effect and ±100 for the full control effect; potency is the fitted concentration of half-maximal effect; tags give direction and shape of the fitted curve or compound fluorescence and quenching.

Sequence of UniProt Q9NR56 (Q9NR56 whole entry, looked up): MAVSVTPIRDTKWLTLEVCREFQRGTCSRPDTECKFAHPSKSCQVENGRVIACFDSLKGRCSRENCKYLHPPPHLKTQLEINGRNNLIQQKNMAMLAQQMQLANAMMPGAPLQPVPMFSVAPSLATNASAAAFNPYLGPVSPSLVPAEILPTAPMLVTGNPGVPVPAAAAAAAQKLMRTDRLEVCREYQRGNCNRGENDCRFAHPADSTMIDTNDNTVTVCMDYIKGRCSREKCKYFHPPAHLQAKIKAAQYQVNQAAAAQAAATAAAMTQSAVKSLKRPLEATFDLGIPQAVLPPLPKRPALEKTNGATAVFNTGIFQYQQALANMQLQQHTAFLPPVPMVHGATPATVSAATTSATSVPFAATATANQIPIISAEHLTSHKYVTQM

SMILES | Potency | activity change, negative = inhibition
Cc1nnsc1C(=O)NC(=O)Nc1ccc(F)c(Cl)c1 | inconclusive: 0.355 µM [quencher, side channel, full curve] | 
O=C(Cc1nc2ccccc2[nH]1)c1ccc([N+](=O)[O-])cc1 | inconclusive: 14.1 µM [quencher, side channel, partial curve] | 
O=C1/C(=C/c2cccnc2)SC(=S)N1CC1CCCO1 (stereo unspecified) | inconclusive: 3.98 µM [quencher, side channel, full curve, poor fit] | 
O=C(NCc1ccco1)/C(=C/c1cccc([N+](=O)[O-])c1)NC(=O)c1ccco1 | inconclusive: 11.2 µM [quencher, side channel, partial curve] | 
Cc1cccc(OCCC(=O)Nc2ccc(S(=O)(=O)N3CCCC3)cc2)c1 |  | inactive: -5.56%
COc1ccc(OC)c(-n2c(-c3ccccc3)n[nH]c2=S)c1 |  | inactive: 2.08%
Cc1c(NC(=O)CSc2ncn[nH]2)c(=O)n(-c2ccccc2)n1C | inconclusive: 39.8 µM [inhibitor, single point] | 
O=C(Cc1cccs1)Nc1ccc([N+](=O)[O-])cc1 | inconclusive: 15.8 µM [activator, partial curve, poor fit] | 
CCOC(=O)C1(CCOC)CCN(Cc2cc3ccccc3s2)CC1 |  | inactive: -6.13%
CN(C)/C=C1\SC(=S)N(c2ccc(Br)cc2)C1=O | inconclusive: 17.8 µM [quencher, side channel, partial curve] | 
COc1ccccc1N1CCN(C(c2ccc(Cl)cc2)c2nnnn2C(C)(C)C)CC1 (stereo unspecified) |  | inactive: -1.28%
Cc1cccc(NC(=S)NNC(=O)c2ccccc2Br)c1 |  | inactive: -1.6%
Cc1ccc(-n2nnnc2SCn2nnc3ccccc3c2=O)cc1 |  | inactive: 11%
O=C(Cc1ccccc1F)Nc1ccc(Cl)nc1 | inconclusive: 100 µM [inhibitor, single point] | 
CCN1CCS/C1=C/C=C/C1=[N+](CC)CCS1 | inconclusive: 20 µM [quencher, side channel, partial curve] | 
COc1cc(/C=N\NC(=O)C2COc3ccccc3O2)cc(OC)c1O (stereo unspecified) | inconclusive: 25.1 µM [quencher, side channel, single point] | 
Cc1nc(C)c(C(=O)N/N=C/c2cn(C)c3ccccc23)s1 | inconclusive: 17.8 µM [quencher, side channel, single point] | 
COC(=O)C1=CNC=C(C(=O)OC)C1c1ccccc1Cl | inconclusive: 35.5 µM [quencher, side channel, single point] | 
O=C(CCC(=O)N1CCOc2ccc(Cl)cc21)NCCN1CCOCC1 |  | inactive: 8.82%
Cc1cc(C(=O)N2CCCC(C(=O)c3ccc4ccccc4c3)C2)n(C)n1 (stereo unspecified) | inconclusive: 17.8 µM [quencher, side channel, partial curve] | 
O=c1c(Cl)c(Cl)cnn1-c1ccccc1 | inconclusive: 31.6 µM [quencher, partial curve] | 

SMILES | Potency | activity change, negative = inhibition
Cc1cccc(NC(=S)NCCN2CCOCC2)c1C | inconclusive: 31.6 µM [fluorescent, side channel, partial curve, poor fit] | 
CCN(CC)C(=O)CSc1nc2ncc(Br)cc2[nH]1 |  | inactive: 7.89%
COCCNC(=O)CC(=O)N/N=C/c1ccc(C(=O)OC)cc1 | inconclusive: 12.6 µM [quencher, side channel, partial curve] | 
CC1(C)CC(=O)C(=C2SCCCS2)C(=O)C1 | inconclusive: 28.2 µM [quencher, side channel, partial curve] | 
Cn1nnc2c[n+](CC(=O)c3ccc4ccccc4c3)cc(Br)c21 | inconclusive: 20 µM [quencher, single point] | 
Cc1ccc(S(=O)(=O)NC2=C(N3CCN(Cc4ccccc4)CC3)C(=O)c3ccccc3C2=O)cc1 | inconclusive: 4.47 µM [quencher, side channel, full curve, poor fit] | 
CC(CCc1ccccc1)NC(=O)COC(=O)C12CC3CC(CC(Br)(C3)C1)C2 (stereo unspecified) | inconclusive: 0.794 µM [fluorescent, side channel, partial curve] | 
O=C(c1ccc2nc(-c3ccccc3)c(-c3ccccc3)nc2c1)N1CCCCC1 | inconclusive: 20 µM [quencher, side channel, single point] | 
S=C(Nc1ccccc1)Nc1ccc(Cl)cn1 | inconclusive: 10 µM [inhibitor, single point] | 
O=C(Nc1ccc(O)cc1)/C(=C\c1cccs1)NC(=O)c1ccccc1 | inconclusive: 39.8 µM [quencher, side channel, single point] | 
COc1ccccc1/C=N/NC(=O)c1ccc(Cn2nc([N+](=O)[O-])cc2C)cc1 | inconclusive: 44.7 µM [quencher, side channel, single point] | 
O=C(Nc1ccc(N2CCOCC2)cc1)C1(S(=O)(=O)c2ccccc2)CC1 | inconclusive: 6.31 µM [quencher, side channel, single point] | 
O=C(Nc1ncccn1)c1ccc(Cl)c([N+](=O)[O-])c1 | inconclusive: 15.8 µM [quencher, partial curve] | 
Cc1cc(C)n(C(=O)CNc2ccc(C)c(C)c2)n1 | inconclusive: 79.4 µM [inhibitor, single point] | 
COc1cc(/C=N/NC(=O)C2CCN(CC(O)COCc3ccccc3)CC2)ccc1O (stereo unspecified) |  | inactive: 4.67%
O=C(Nc1ccccc1Br)C1CCCN1S(=O)(=O)c1cccc2nsnc12 (stereo unspecified) | inconclusive: 11.2 µM [quencher, side channel, partial curve] | 
Cc1ccc(NC(=O)c2ccc(N3CCOCC3)c([N+](=O)[O-])c2)cc1S(=O)(=O)N1CCOCC1 | inconclusive: 17.8 µM [quencher, side channel, partial curve] | 
NC(=O)c1ccc(Br)c(S(=O)(=O)N2CCCCC2)c1 |  | inactive: 1.17%
O=C(NCCc1ccccn1)/C(=C/c1ccco1)NC(=O)c1ccccc1 | inconclusive: 0.398 µM [quencher, side channel, full curve, poor fit] | 
Nc1nc(SCc2ccc(Cl)cc2Cl)ns1 | inconclusive: 79.4 µM [inhibitor, single point] | 
O=C1/C(=N\S(=O)(=O)c2cccs2)C([n+]2cccc(Cc3ccccc3)c2)=C([O-])c2ccccc21 | inconclusive: 1.41 µM [quencher, side channel, full curve] | 

SMILES | Potency | activity change, negative = inhibition
O=C(CCCN1C(=O)/C(=C/c2ccccc2)SC1=S)NCCCn1ccnc1 | inconclusive: 10 µM [quencher, side channel, partial curve] | 
O=C(O)c1cc(-c2ccc(/C=N/NC(=S)Nc3ccccc3)o2)ccc1Cl | inconclusive: 28.2 µM [quencher, side channel, partial curve] | 
O=C1c2cccc3cccc(c23)C(=O)N1CCN1CCN(CC(O)COCc2ccc(Cl)cc2)CC1 (stereo unspecified) | inconclusive: 17.8 µM [quencher, side channel, partial curve] | 
COc1ccc(Br)cc1CNc1ccc(O)cc1 | inconclusive: 15.8 µM [quencher, side channel, partial curve, poor fit] | 
CC(=C/c1ccccc1)/C=N/n1c(-c2ccncc2)n[nH]c1=S | inconclusive: 22.4 µM [quencher, side channel, partial curve] | 
CC(=O)c1ccc(Nc2cc(C)nc3ccc(C)cc23)cc1 | inconclusive: 25.1 µM [quencher, side channel, partial curve] | 
Cc1ccc(N=C2NC(=O)c3cc([N+](=O)[O-])ccc32)cc1 | inconclusive: 1.58 µM [quencher, side channel, full curve] | 
O=c1c2cc3c(cc2[nH]c(=S)n1C1CCN(Cc2ccccc2)CC1)OCO3 |  | inactive: -14.6%
O=C(NCc1ccco1)c1ccc([N+](=O)[O-])cc1Cl | inconclusive: 14.1 µM [quencher, side channel, partial curve] | 
Cn1c(=O)c(NCCc2ccccc2)c2c3c(cccc31)C(=O)c1ccccc1-2 | inconclusive: 20 µM [quencher, partial curve] | 
Cc1nonc1OCCNc1ccc([N+](=O)[O-])cc1 | inconclusive: 28.2 µM [quencher, side channel, partial curve] | 
COc1cccc(-c2csc(N3CCN(C(=S)Nc4ccc(Cl)cc4)CC3)n2)c1 |  | inactive: 3.76%
COc1cccc(C(=O)N/N=C/C(Br)=C/c2ccccc2)c1 | inconclusive: 10 µM [quencher, side channel, partial curve] | 
COCc1cc(C)nc2sc(C(=O)Nc3ccccc3C)c(N)c12 | inconclusive: 14.1 µM [quencher, side channel, partial curve] | 
COc1ccc(C2C(C(C)=O)=C(O)C(=O)N2c2ccc(Br)cc2)cc1 (stereo unspecified) | inconclusive: 12.6 µM [quencher, side channel, partial curve] | 
O=C(CN1C(=O)S/C(=C/c2cccs2)C1=O)N1CCOCC1 | inconclusive: 3.16 µM [quencher, side channel, full curve] | 
NC(=O)C1CCN(C(=O)CN2C(=O)c3ccccc3S2(=O)=O)CC1 |  | inactive: -2.83%
CCC(=O)N(C1=C(NC)C(=O)c2ccccc2C1=O)C(C)C | inconclusive: 11.2 µM [quencher, side channel, partial curve] | 
COC(=O)C(C)SC1=N/C(=C/c2ccc(-n3cncn3)cc2)C(=O)N1 (stereo unspecified) | inconclusive: 15.8 µM [quencher, side channel, partial curve] | 
